Where a name gives a salt, the structure may show the parent alone. The list shows a part of the results. The data scatter; read single values as rough.
Tests used:
Experiment in all cases: ALDHbr (CSC) cell proportion score relative to DMSO vehicle (ratio to DMSO); breast (SUM159) / gastric (MKN45) / pancreatic (PANC1) / colon cancer lines; ALDHbr cells have high ALDH activity and are rich in cancer stem cells (CSC); higher = more CSC (ALDHbr) cells remaining
Conditions in all cases: 10 µM; 72 h
MKN45 = test system: MKN45
PANC1 = test system: PANC1
SUM159 = test system: SUM159
T84 = test system: T84
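Further: High-content imaging of ALDEFLUOR-stained cells with Hoechst-labelled nuclei in 384-well plates, triplicate wells, scored as Z-score against 0.1% DMSO vehicle, negative meaning fewer ALDHbr cells.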

| SMILES | ALDHbr (MKN45) | ALDHbr (PANC1) | ALDHbr (SUM159) | ALDHbr (T84) |
| --- | --- | --- | --- | --- |
| CN(C)[C@@H]1C(=O)C(C(N)=O)=C(O)[C@@]2(O)C(=O)C3=C(O)c4c(O)ccc(Cl)c4[C@@](C)(O)[C@H]3C[C@@H]12 [Chlortetracycline hydrochloride] | 0.947 | 0.612 | 0.821 | 1.05 |
| CNC(C)(C)Cc1ccccc1 [Mephentermine hemisulfate] | 1.1 | 0.818 | 1.35 | 1.37 |
| CN(C)C(=O)Oc1cc(OC(=O)N(C)C)cc(C(O)CNC(C)(C)C)c1 (stereo not drawn) [Bambuterol hydrochloride] | 1.04 | 0.822 | 0.944 | 0.803 |
| C=C1C[C@@H]2[C@H](CC[C@]3(C)C(=O)CC[C@@H]23)[C@@]2(C)C=CC(=O)C=C12 [Exemestane] | 0.649 | 0.712 | 0.615 | 0.524 |
| CN1CCC2(C)c3cc(O)ccc3N(C)C12 (single isomer, unassigned; (-)) [(-)-Eseroline fumarate salt] | 1.17 | 0.772 | 0.716 | 0.828 |
| CC(=O)O[C@H]1CC[C@@]2(C)C(=CC[C@@H]3[C@@H]2CC[C@]2(C)C(=O)CC[C@@H]32)C1 [Dehydroisoandosterone 3-acetate] | 0.885 | 0.907 | 1.12 | 1.11 |
| NCCc1c[nH]c2ccc(O)cc12 [Serotonin hydrochloride] | 1.07 | 0.965 | 1.26 | 0.891 |
| COc1ccc(C(CN(C)C)C2(O)CCCCC2)cc1 (stereo not drawn) [Venlafaxine] | 1.09 | 0.862 | 1.38 | 0.912 |
| O=C(CCCN1CCC2(CC1)C(=O)NCN2c1ccccc1)c1ccc(F)cc1 [Spiperone] | 1.54 | 1.13 | 0.717 | 0.55 |
| C[C@]12C/C(=C/O)C(=O)C[C@@H]1CC[C@@H]1[C@@H]2CC[C@@]2(C)[C@H]1CC[C@]2(C)O [Oxymetholone] | 0.756 | 0.75 | 0.664 | 0.712 |
| CC(Cc1ccccc1)NCCC(c1ccccc1)c1ccccc1 (stereo not drawn) [Prenylamine lactate] | 1.51 | 0.885 | 0.937 | 0.0795 |
| CCCC[N+]1(C)[C@@H]2CC(OC(=O)[C@H](CO)c3ccccc3)C[C@H]1[C@@H]1O[C@@H]12 (stereo partly drawn) [Butylscopolammonium (n-) bromide] | 0.924 | 0.97 | 1.07 | 0.785 |
| CCCC(C)C1(CC)C(=O)NC(=O)NC1=O (stereo not drawn) [Pentobarbital] | 1.22 | 0.952 | 1.04 | 0.99 |
| CCC1(c2ccc(N)cc2)CCC(=O)NC1=O (stereo not drawn) [Glutethimide, para-amino] | 0.976 | 0.846 | 0.872 | 0.915 |
| O=c1[nH]oc2c1CCNC2 [THIP Hydrochloride] | 1.14 | 0.964 | 1.01 | 1.1 |
| C=C(C)[C@@H]1[C@H]2OC(=O)[C@@H]1[C@]1(O)C[C@H]3O[C@]34C(=O)O[C@H]2[C@]14C [Picrotoxinin] | 0.966 | 0.964 | 0.93 | 1.01 |
| C[C@@H]1CC[C@H]2[C@@H](C)C(=O)O[C@@H]3O[C@@]4(C)CC[C@@H]1[C@]32OO4 [Artemisinin] | 0.786 | 1.05 | 0.574 | 0.817 |
| O=C(CCCN1CCC(n2c(=O)[nH]c3ccccc32)CC1)c1ccc(F)cc1 [Benperidol] | 1.17 | 0.796 | 1.49 | 0.719 |
| CN1[C@@H]2CC[C@H]1C[C@@H](OC1c3ccccc3CCc3ccccc31)C2 [Deptropine citrate] | 0.971 | 1.16 | 0.877 | 0.268 |
| COc1ccc(OC)c(C(O)C(C)N)c1 (stereo not drawn) [Methoxamine hydrochloride] | 1.01 | 0.915 | 1.18 | 0.989 |
| N[C@@H]1C[C@H]1c1ccccc1 [Tranylcypromine hydrochloride] | 0.817 | 0.856 | 1.18 | 0.933 |
| CC(CCc1ccccc1)NC(C)C(O)c1ccc(O)cc1 (stereo not drawn) [Nylidrin] | 1.12 | 0.959 | 2.14 | 0.889 |
| CCC(=O)O[C@H]1CC[C@H]2[C@@H]3CCC4=CC(=O)CC[C@]4(C)[C@H]3CC[C@]12C [Testosterone propionate] | 0.744 | 0.708 | 1.8 | 0.998 |
| CN1[C@@H]2CC[C@H]1C[C@@H](OC(=O)[C@H](CO)c1ccccc1)C2 [Hyoscyamine (L)] | 1.11 | 1.07 | 1.06 | 1.21 |
| Cc1cc(C(C#N)c2ccc(Cl)cc2)c(Cl)cc1NC(=O)c1cc(I)cc(I)c1O (stereo not drawn) [Closantel] | 0.981 | 1.03 | 1.32 | 0.984 |
| CNCC(O)c1ccc(O)cc1 (racemic) [(+,-)-Synephrine] | 0.988 | 0.922 | 1.97 | 0.866 |

| SMILES | ALDHbr (MKN45) | ALDHbr (PANC1) | ALDHbr (SUM159) | ALDHbr (T84) |
| --- | --- | --- | --- | --- |
| CCn1cc(C(=O)O)c(=O)c2cc3c(cc21)OCO3 [Oxolinic acid] | 0.953 | 0.849 | 1.02 | 0.921 |
| CN[C@@H]1C[C@@H](c2ccc(Cl)c(Cl)c2)c2ccccc21 [Indatraline hydrochloride] | 1.68 | 1.56 | 0.562 | 0.284 |
| CC(N)C(O)c1ccccc1 (stereo not drawn) [Phenylpropanolamine hydrochloride] | 1.15 | 0.944 | 1.99 | 0.865 |
| CC(C)C[C@H]1C(=O)N2CCC[C@H]2[C@]2(O)O[C@](NC(=O)[C@@H]3C=C4c5cccc6[nH]c(Br)c(c56)C[C@H]4N(C)C3)(C(C)C)C(=O)N12 [Bromocryptine mesylate] | 0.571 | 0.601 | 0.31 | 0.724 |
| O=[N+]([O-])O[C@H]1CO[C@H]2[C@@H]1OC[C@H]2O[N+](=O)[O-] [Isosorbide dinitrate] | 0.0753 | 0.635 | 0.0324 | 0.199 |
| C[C@]12CC[C@H]3[C@@H](CCC4=CC(=O)CC[C@@H]43)[C@@H]1CC[C@@H]2O [Nandrolone] | 0.911 | 0.864 | 0.927 | 1.02 |
| C[N+]1(C)[C@@H]2CC[C@H]1C[C@@H](OC(=O)C(CO)c1ccccc1)C2 (stereo partly drawn) [Methylatropine nitrate] | 1.04 | 1.02 | 0.981 | 0.962 |
| NC(=O)C[S+]([O-])C(c1ccccc1)c1ccccc1 (stereo not drawn) [Modafinil] | 0.945 | 0.864 | 1.04 | 0.852 |
| C1CCc2nnnn2CC1 [Pentylenetetrazole] | 0.864 | 1.03 | 0.953 | 1.14 |
| NCC(O)c1ccc(O)cc1 (racemic) [(+,-)-Octopamine hydrochloride] | 0.966 | 0.854 | 1.48 | 0.951 |
| CN1CCN(C(=O)O[C@H]2c3nccnc3C(=O)N2c2ccc(Cl)cn2)CC1 [Eszopiclone] | 0.871 | 0.946 | 1.02 | 1.05 |
| NCCCNCCSP(=O)(O)O [Amifostine] | 1.06 | 0.874 | 1.17 | 0.922 |
| C[C@@H]1CN([C@H]2CC[C@](C#N)(c3ccc(F)cc3)CC2)CC[C@]1(C(=O)O)c1ccccc1 [Levocabastine hydrochloride] | 0.905 | 0.776 | 0.967 | 0.911 |
| CC(C)(N)Cc1ccccc1 [Phentermine hydrochloride] | 1.25 | 1.01 | 1.08 | 1.13 |
| CC(C)c1c(CN(C)C(C)Cc2ccccc2)n(C)n(-c2ccccc2)c1=O (stereo not drawn) [Famprofazone] | 0.778 | 0.875 | 0.787 | 0.858 |
| C[C@]12COC(=O)C[C@@H]1CC[C@@H]1[C@@H]2CC[C@@]2(C)[C@H]1CC[C@]2(C)O [Oxandrolone] | 1 | 0.895 | 1.17 | 0.896 |
| CCC1(C)CC(=O)NC(=O)C1 [Bemegride] | 0.88 | 0.967 | 1.31 | 0.972 |
| COc1ccc(Cc2nccc3cc(OC)c(OC)cc23)cc1OC [Papaverine hydrochloride] | 1.2 | 0.932 | 1.65 | 0.801 |
| CCCC(C)(COC(N)=O)COC(=O)NC(C)C (stereo not drawn) [Carisoprodol] | 0.936 | 1 | 0.959 | 1.09 |
| C#CCN(C)[C@H](C)Cc1ccccc1 [Selegiline hydrochloride] | 1.07 | 0.975 | 1.02 | 1.05 |
| C[C@]12CCC(=O)C(O)=C1CC[C@@H]1[C@@H]2CC[C@]2(C)C(=O)CC[C@@H]12 [Formestane] | 0.941 | 0.963 | 0.983 | 0.88 |
| CN(C)[C@@H]1C(=O)C(C(N)=O)=C(O)[C@@]2(O)C(=O)C3=C(O)c4c(O)cccc4[C@@](C)(O)[C@H]3[C@H](O)[C@@H]12 [Oxytetracycline dihydrate] | 0.864 | 0.575 | 0.876 | 0.887 |
| O=C(NCNC(=O)NC1C(=O)NC(=O)N1CO)NC1C(=O)NC(=O)N1CO (stereo not drawn) [Imidurea] | 1.1 | 1 | 1.23 | 0.912 |
| Fc1ccc(C(OCCN2CCN(CCCc3ccccc3)CC2)c2ccc(F)cc2)cc1 | 0.268 | 0.487 | 0.58 | 0.401 |
| C[C@]12CC[C@H](O)C[C@@H]1CC[C@@H]1[C@@H]2CC[C@]2(C)C(=O)CC[C@@H]12 [Epiandrosterone] | 0.711 | 0.91 | 0.815 | 0.861 |
| CCN(C)C(=O)Oc1cccc([C@H](C)N(C)C)c1 [Rivastigmine] | 1.2 | 0.886 | 1 | 0.976 |
